Assay results published in the supplement of paper PMC11417369.
The other results are listed elsewhere or left out.

What follows are sequences tested on PfAP2-HC AP2 domain (GST-tagged) (assay: gcPBM binding intensity (ln(normalized median fluorescence intensity)); higher = stronger DNA binding).
Procedure, shortened: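 The binding buffer was 1× PBS containing 1% milk, 0.2 mg/ml BSA, 0.5% salmon testes DNA and 0.03% Triton X-100. In it, GST-tagged P. falciparum DNA-binding domains expressed in E. coli were applied for 1 h to an Agilent 4 × 180k array of primer-extended double-stranded 36-bp intergenic genomic probes plus negative controls. Binding intensity, read with Alexa488 anti-GST antibody and a 488 nm scan, is the highest Masliner-normalised natural-log median intensity across replicate spots of either probe orientation.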
With “AATTGATACCTTACATGTACATAATATATATAAATA [XGTACX_site321]” the “gcPBM binding intensity (ln)” value was 9.67. “TTTTTACATACAAATTAACACACATATAGAAAAGAG [CACACA_site8570]” was tested, and the “gcPBM binding intensity (ln)” value was 9.77. With “GAACCATTTTTTGGTATACACACGTAATTATATAAT [CACACA_site8552]” the “gcPBM binding intensity (ln)” value was 9.7. “CCTTTATAAAAAAGTAGTACACAATGAATTTATAAT [XGTACX_site5523]” was tested, and the “gcPBM binding intensity (ln)” value was 9.39. For “CAATACTAATTGTATACACACAAAAATATACCATAT [CACACA_site3326]”, the “gcPBM binding intensity (ln)” value was 10. In the case of “TATATTTATAGACACACACACAAAAAAAAAAAAAAA [CACACA_site6818]”, the “gcPBM binding intensity (ln)” value is reported as 10.8. In the case of “TAATTTTTTTTATTATGTACTTAATAAATGTTAATT [XGTACX_site365]”, the “gcPBM binding intensity (ln)” value is reported as 9.48. With “AAATTATTTATATGTTGTACTTATCCATTTTTATAA [XGTACX_site7441]” the “gcPBM binding intensity (ln)” value was 9.68. “TTAGCTACACGCTAATGTACACAAATACAAAGAAAA [XGTACX_site3993]” was tested, and the “gcPBM binding intensity (ln)” value was 9.56. For “TATACGCATATATAAACACACAAAAAAAAAAAAAAA [CACACA_site2026]”, the “gcPBM binding intensity (ln)” value was 9.43. In the case of “TATATTAATTTATATCAACACACAAAATCAATATAC [CACACA_site8518]”, the “gcPBM binding intensity (ln)” value is reported as 9.91. “AAGAATGTTATATTATGATGCTGTCTTTTTTTAAGA [CACACA_negctrl_site251]” was tested, and the “gcPBM binding intensity (ln)” value was 9.4. “AATAAACATATATGTACACACATATACATATATATA [CACACA_site2848]” was tested, and the “gcPBM binding intensity (ln)” value was 9.83. In the case of “TTTTTTTTTAATTATGCATGTAAATTATATATTATA [TGCATGCA_site335]”, the “gcPBM binding intensity (ln)” value is reported as 9.55. “TATTTATAATTAAATACACACATATATTATATATTT [CACACA_site616]” was tested, and the “gcPBM binding intensity (ln)” value was 9.79. For “CATATTTGTATATGCACACATAAATTTTTCCATTTC [CACACA_site3467]”, the “gcPBM binding intensity (ln)” value was 9.81. With “AAATTTTTAAACAGCACACATAAATATAATATATAT [CACACA_site2208]” the “gcPBM binding intensity (ln)” value was 10. For “AAACAAAAAAACTACAGTACTTTTTTCAATTCCCCT [XGTACX_site7541]”, the “gcPBM binding intensity (ln)” value was 9.57. “TATATGTTTACTTAATGTACTTACATTTTTATAACA [XGTACX_site1100]” was tested, and the “gcPBM binding intensity (ln)” value was 9.69. With “AAAATTAACCGTAACACACACACATATATATATATA [CACACA_site3964]” the “gcPBM binding intensity (ln)” value was 10.8. In the case of “ACATAAATAATAAAAACACACATATGTACTTATATA [CACACA_site8581]”, the “gcPBM binding intensity (ln)” value is reported as 9.95. In the case of “TTATTAATTTTTATTTTTAAATCACAAAAGATATAA [CACACA_negctrl_site787]”, the “gcPBM binding intensity (ln)” value is reported as 9.2. With “TTACATTTTTGAAATAGATACATACACGTGTATGTA [CACACA_negctrl_site1311]” the “gcPBM binding intensity (ln)” value was 9.47. For “GACATTAAAATGAAATATACATATATATGTATATAT [TGCATGCA_negctrl_site601]”, the “gcPBM binding intensity (ln)” value was 9.68. For “ATATATATATATATTACACACATGTGCAATTAAAAT [CACACA_site1778]”, the “gcPBM binding intensity (ln)” value was 9.97. “AATATAAGAATATATACACACATAAATACATACATA [CACACA_site4128]” was tested, and the “gcPBM binding intensity (ln)” value was 10. With “AATTGAAAAATCAGCACACACACAAATACATACATA [CACACA_site3232]” the “gcPBM binding intensity (ln)” value was 10.6. With “TGGTAATACACATACACACACACATACACATATATA [CACACA_site7312]” the “gcPBM binding intensity (ln)” value was 11.4. “GCTATATATTACAATCGTACAATATATATATATATA [XGTACX_site6730]” was tested, and the “gcPBM binding intensity (ln)” value was 9.7. With “AATACTTTTTATTTAGTGCATAAGAAAATATAAATC [GTGCAC_site9875]” the “gcPBM binding intensity (ln)” value was 9.57. For “AAAAAAAAAAATTCGGTGCAATGTAATTAATGTAAA [GTGCAC_site9588]”, the “gcPBM binding intensity (ln)” value was 9.7. “TATAAAATATGTATGAGGAATAAAATTAAAAAAAAA [TGCATGCA_negctrl_site178]” was tested, and the “gcPBM binding intensity (ln)” value was 9.64. “TTTTTAAAACCTTACATACACACAAATATATATATA [CACACA_site678]” was tested, and the “gcPBM binding intensity (ln)” value was 9.74. With “TGTTCCGAAGGTTGTACACACATAGAAATATACATA [CACACA_site3874]” the “gcPBM binding intensity (ln)” value was 9.93. With “TGAATTCATAGCAGTTGTACATTGCATGAAGAAACG [XGTACX_site3312]” the “gcPBM binding intensity (ln)” value was 9.66. In the case of “TCTTGTATACGGCATGCATGTTAGCACATACGGACA [TGCATGCA_site146]”, the “gcPBM binding intensity (ln)” value is reported as 9.57. With “TTTTTTTGCGCGGGAAGAATAAAATTTATAGAATAT [TGCATGCA_negctrl_site306]” the “gcPBM binding intensity (ln)” value was 9.29. In the case of “AATTTACACGTACGTGTACACACAAAAATATGTTTT [CACACA_site8242]”, the “gcPBM binding intensity (ln)” value is reported as 9.92. For “CAGACATTAATAAGTAGTACACAATAATTGACTAGG [XGTACX_site854]”, the “gcPBM binding intensity (ln)” value was 9.78. For “TTATATGTTTCTTCACGTACGTATAAAAATGAACTT [XGTACX_site1764]”, the “gcPBM binding intensity (ln)” value was 9.5. For “TATTTTTATAAAAACTGTACATAATAAATAAAAATA [XGTACX_site4743]”, the “gcPBM binding intensity (ln)” value was 9.5. “AATCAAAGTAATTTAACACACAATTTTAATACTGTT [CACACA_site7169]” was tested, and the “gcPBM binding intensity (ln)” value was 9.78. For “TATCATGTGCGTGCGTGTACTTAACACACATAATAT [XGTACX_site2404]”, the “gcPBM binding intensity (ln)” value was 9.84. In the case of “TTGTTCATTATGCACAGTACATAAAAAGTAAAAAAA [XGTACX_site2403]”, the “gcPBM binding intensity (ln)” value is reported as 9.68.
